# Reference: PMC10276003
# Amino acid sequences for entries named in this document (tags omitted). A change or cut given only in a name is not applied to a line headed by its entry. Chains listed by the source or under a name are the forms on record and can include a tag or linker.
# UniProt Q9UKV8: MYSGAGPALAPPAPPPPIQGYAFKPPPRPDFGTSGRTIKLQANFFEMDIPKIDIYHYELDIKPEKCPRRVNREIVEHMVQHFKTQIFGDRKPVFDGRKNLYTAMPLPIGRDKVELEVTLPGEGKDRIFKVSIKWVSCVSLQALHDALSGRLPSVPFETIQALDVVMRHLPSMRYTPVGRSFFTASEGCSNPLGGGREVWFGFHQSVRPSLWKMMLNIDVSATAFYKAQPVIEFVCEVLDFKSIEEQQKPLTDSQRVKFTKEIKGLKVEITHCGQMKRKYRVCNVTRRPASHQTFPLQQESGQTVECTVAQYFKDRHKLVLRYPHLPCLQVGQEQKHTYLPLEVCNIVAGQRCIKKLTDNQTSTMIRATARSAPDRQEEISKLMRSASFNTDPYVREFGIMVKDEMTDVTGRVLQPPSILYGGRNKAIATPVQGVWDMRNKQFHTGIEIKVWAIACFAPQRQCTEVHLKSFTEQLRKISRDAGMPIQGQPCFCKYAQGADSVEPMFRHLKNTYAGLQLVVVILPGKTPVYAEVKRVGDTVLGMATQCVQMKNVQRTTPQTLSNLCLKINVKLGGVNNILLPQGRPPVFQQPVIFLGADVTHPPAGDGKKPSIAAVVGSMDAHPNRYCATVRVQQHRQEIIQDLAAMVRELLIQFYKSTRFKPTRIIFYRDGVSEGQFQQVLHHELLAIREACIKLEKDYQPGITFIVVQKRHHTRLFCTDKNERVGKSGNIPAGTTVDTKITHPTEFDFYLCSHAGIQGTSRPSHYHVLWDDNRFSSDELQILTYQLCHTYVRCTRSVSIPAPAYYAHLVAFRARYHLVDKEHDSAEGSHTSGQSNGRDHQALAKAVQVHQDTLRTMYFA
# MBP-PAZ 4A (AGO2 PAZ domain 235-348, 323PHLP326 to four alanines) (Q9UKV8, form named): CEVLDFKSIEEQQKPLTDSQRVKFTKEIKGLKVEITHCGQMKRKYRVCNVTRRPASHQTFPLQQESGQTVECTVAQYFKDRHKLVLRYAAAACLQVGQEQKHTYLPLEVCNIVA
# These are yes or no findings as the source states them, for the method shown. For part of these data: Binding seen in cells or lysates may run through a third protein. Some binding calls cover weakened binding; strength is not graded here.
# Experiments:
# [1] = biological target: AGO2 (purified as GST-AGO2, GST cleaved) (human) (UniProt Q9UKV8); assay: MST; 2.29 to 75,000 nM unlabelled DICER1^CT with 100 nM Atto 488-labelled AGO2 pre-incubated with 25 uM GRB2; 20 mM HEPES, 150 mM NaCl, 1 mM TCEP pH 7.5; both purified
# [2] = biological target: AGO2 (purified as GST-AGO2, GST cleaved) (human) (UniProt Q9UKV8); assay: MST; 2.29 to 75,000 nM unlabelled DICER1^CT with 100 nM Atto 488-labelled AGO2 pre-incubated with 50 uM GRB2; 20 mM HEPES, 150 mM NaCl, 1 mM TCEP pH 7.5; both purified
# His-tagged GRB2 = His-tagged GRB2 (UniProt P62993); assay: ITC; 500 uM MBP-tagged AGO2 domain titrated into 20 uM His-tagged GRB2; 25 C; 20 mM Tris-HCl pH 8, 150 mM NaCl, 10% glycerol, 1 mM beta-mercaptoethanol; one-site model with n fixed at 1; both purified
# [3] = biological target: growth factor receptor-bound protein 2 (GRB2), endogenous (human (endogenous in HEK293T, A498, PC3)) (UniProt P62993); assay: co-IP; endogenous proteins; serum-starved HEK293T, A498 and PC3 cells; 500 ug lysate, 4 ug antibody overnight at 4 C, Protein A/G magnetic beads; western blot
# GST-GRB2 = GST-GRB2 (UniProt P62993); assay: pull-down; GST-GRB2 on glutathione superflow resin, 1 mg lysate of serum-starved cells in 500 ul, 1 h at room temperature; western blot; only the target purified
# [4] = biological target: RFP-tagged GRB2 (wild type) (UniProt P62993); assay: FRET or BRET; fluorescence lifetime imaging microscopy (FLIM) of GFP; HEK293T with stable FGFR2 expression, transfected, serum-starved, fixed
# RFP-GRB2 W193K = RFP-GRB2 W193K (UniProt P62993); assay: FRET or BRET; GFP- and RFP-tagged proteins co-transfected in HEK293T, serum-starved overnight, fixed; confocal FRET signal
# [5] = biological target: RFP-tagged GRB2 (wild type) (UniProt P62993); assay: as above
# RFP-GRB2 R86A = RFP-GRB2 R86A (UniProt P62993); assay: as above
substance,measurement,setting,value
His-tagged GRB2 (from UniProt P62993 1-217),binding,[1],binds
same,binding,[2],binds
MBP-tagged AGO2 MID domain (residues 450-573) (from UniProt Q9UKV8 450-573) (domain or fragment),binding,His-tagged GRB2,no binding (tested: 500 uM titrated into 20 uM GRB2)
MBP-tagged AGO2 N-terminal domain (residues 1-139) (from UniProt Q9UKV8 1-139) (domain or fragment),binding,His-tagged GRB2,no binding (tested: 500 uM titrated into 20 uM GRB2)
"Argonaute 2 (AGO2), endogenous (from UniProt Q9UKV8 1-859)",binding,[3],binds
same,binding,GST-GRB2,binds
GFP-tagged full length AGO2 (wild type) (from UniProt Q9UKV8 1-859),binding,[4],binds
same,binding,RFP-GRB2 W193K,binds
same,binding,[5],binds
same,binding,RFP-GRB2 R86A,binds
"MBP-PAZ 4A (AGO2 PAZ domain 235-348, 323PHLP326 to four alanines) (from UniProt Q9UKV8 235-348) (domain or fragment)",binding,His-tagged GRB2,no binding (tested: 500 uM titrated into 20 uM GRB2)
MBP-tagged AGO2 PIWI domain (residues 517-818) (from UniProt Q9UKV8 517-818) (domain or fragment),binding,His-tagged GRB2,no binding (tested: 500 uM titrated into 20 uM GRB2)
